Laboratory results: paper PMC12136788
Some of the results follow.

T1: UNK ZnF1-3 (human, UniProt Q9C0B0 31-174)
T1 sequence: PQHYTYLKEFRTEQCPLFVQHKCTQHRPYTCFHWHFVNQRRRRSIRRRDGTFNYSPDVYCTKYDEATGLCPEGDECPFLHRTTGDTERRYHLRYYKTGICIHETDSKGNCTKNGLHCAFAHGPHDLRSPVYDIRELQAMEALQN

B1: chr16:33771563:33771564:+_ENSMUSG00000075254_ENSMUST00000152782|mus_mus|motif|central (ssRNA)
RNA: GGGAGUUCUACAGUCCGACGAUCAGACUUAGAGUGGAUAUAAGUAUAAAAAAUAACCAAAUUCUUACAAAUAACACAUUGCGGCGGCAGUACUGAAUAAUUAUUGGAGGUGACAUUAUAAUACAACUUUAAAUAACAUUCUCACAACAGAGGAUUGAGCAUCA
B2: chr4:25749455:25749456:-_ENSG00000091490_ENST00000264868|hu_hu|hu_hu_hu_mus_False|1_68 (ssRNA)
RNA: GGGAGUUCUACAGUCCGACGAUCGCACUAUGACCUCUAGAAAAAUCCACAGGGGGAAAAAAUGUAAACCAAUUUACAAUGUUAUCGCCUUCCCUGUGUGUGGAGUGUUUGUCUCAAGGCUCCUUCUAGCUGCUGGACUGCUAGCAACAGAGGAUUGAGCAUCA
B3: 83845325_83845445_827_3pUTR_ENSG00000230989_ENST00000433866|human|control|control (ssRNA)
RNA: GGGAGUUCUACAGUCCGACGAUCACUCUAAAGUCUACAAACAUCUUACUUCACCAAGACUAACUAUAAUUGAAGGGUUUACUAUUUGUUUAAUAAAAAAUCACACAUCAACUUUUAUCCAAACAGCAACUACUACAAAAGGAACAACAGAGGAUUGAGCAUCA
B4: chr9:95013113:95013114:-_ENSG00000196305_ENST00000443024|hu_hu|hu_hu_hu_mus_False|58_98 (ssRNA)
RNA: GGGAGUUCUACAGUCCGACGAUCCUCAGUCAGAAAGGGUGUGUAGGGGGCCAUCAGUCUGCACAGAGAAAGCAGGACACUAAACAAUGUCUCCAGAGCCAUGACACAGUCUUCCACCCCACUCUCACCCUUUAACCUCCUCCUCAACAGAGGAUUGAGCAUCA
B5: chr1:155751701:155751702:+_ENSMUSG00000026473_ENSMUST00000086199|mus_mus|motif|central (ssRNA)
RNA: GGGAGUUCUACAGUCCGACGAUCAAACAUGGCAACAGGAUGGAGGUACAUGUCGCUGUUGGAGCCUUCAGACUGAAAGGUACGGGAGCCAUCAAAGUUCCACUCAGGUAACUCUUCCACACACUUGGGCUCACAGUCCAGGGUCAACAGAGGAUUGAGCAUCA
B6: chr4:103533647:103533648:+_ENSG00000109320_ENST00000505458|hu_hu|FALSE|FALSE (ssRNA)
RNA: GGGAGUUCUACAGUCCGACGAUCCCCCAGACCUAAUUUCUGCGCCAGAGUAGCCCAGUUUUUGUCUGGAUCAGGAAUUUCUAGUAACUUAUACAGCUGCAGCUUCACAUCUUCAGCCAGCUGUUUCAUGUCUCCUUGUGCUAGCAACAGAGGAUUGAGCAUCA
B7: 72664031_72664151_698_5pUTR_ENSMUSG00000022883_ENSMUST00000023600|mouse|control|control (ssRNA)
RNA: GGGAGUUCUACAGUCCGACGAUCUCUGAAGAGGCUCAACCACUUCCAAGGCUCAUCCAAGGCGAACAACAAAGAGCCUAAACCGAGGAGCAGUUGUGCGGUUUCCUGCCUCCACAGUCCUGCUGAGCCUCCCGGCGUGCGCCUCAACAGAGGAUUGAGCAUCA
B8: chr11:77336104:77336105:-_ENSG00000074201_ENST00000525064|hu_mus|hu_hu_hu_mus_False|28_48 (ssRNA)
RNA: GGGAGUUCUACAGUCCGACGAUCCUCACACAUUGCUGUGAACAUCGCCUCCAAUGCUGACUUAUCACUGGGCACAAAUCGAAAUUCAGUAAUAGGUUCAACAUCAUCAUCACUGUCCUCAUCUUCAUCAGAGAGAGGUUCUUUCAACAGAGGAUUGAGCAUCA
B9: chr1:220276048:220276049:+_ENSG00000067704_ENST00000302637|hu_hu|hu_hu_hu_mus_True|18_68 (ssRNA)
RNA: GGGAGUUCUACAGUCCGACGAUCGCAAAUUGCCUGGUUGGCGGGAAUUGUCCAAGGCUGGGUGGUCCAGACCAAAACGCUAACAGGGGAUGAGGCAUCUGUAAGAGACUCCAACUUUGGAGAAGGCCUCAGGAGGGGGAAUCUCAACAGAGGAUUGAGCAUCA
B10: chr7:135612270:135612271:-_ENSG00000105887_ENST00000393085|hu_mus|hu_hu_hu_mus_False|58_88 (ssRNA)
RNA: GGGAGUUCUACAGUCCGACGAUCGUUUUUUUCUGAGAUGUUAAAUAUUCAGUGGAGGGAAAACAAAACUUAACCUUUCGCUAAUGCGUGUUGUACCAAAAGCAGACAUUUUAGCUUCAUUUAUUCAAAAAUAUUAACAUUAAGCAACAGAGGAUUGAGCAUCA
B11: 90250392_90250512_7279_3pUTR_ENSMUSG00000012422_ENSMUST00000161568|mouse|control|control (ssRNA)
RNA: GGGAGUUCUACAGUCCGACGAUCGUUUUCUAUUUUUCUAUUACCUCAAUUUUUAAGGUAUCUUUUGGCUAUAUCAUUUCUUUGGUUACAAUCUUUAUCUGCAGGAGGUCUUAGCCUAUCCAUUAAAUUCUUCGACUAGACUUCCAACAGAGGAUUGAGCAUCA
B12: chr8:35894604:35894605:-_ENSMUSG00000031529_ENSMUST00000033929|mus_mus|FALSE|FALSE (ssRNA)
RNA: GGGAGUUCUACAGUCCGACGAUCUGUCACUCUAGCAAUGCUUUAUAAAAGACAGCUUAUUUCUUGGCUGUUGGGAUUUAGAGAAUAUUGAUUUUUUGUUGGAAGCAAUCCACUGUACUCCAGUUGCAGGUUUGAAUCACUCUGCAACAGAGGAUUGAGCAUCA
B13: chr5:138994509:138994510:+_ENSG00000131508_ENST00000398734|hu_hu|FALSE|FALSE (ssRNA)
RNA: GGGAGUUCUACAGUCCGACGAUCGAUGGACAAGAGUACUUUUGAAAUAGUUAGUGCUGGAGACCACUGUGAUCGUAGAAUAUCAAGACAAAUGCUGCCAUUACUGUUAAUAUUUGGAUGAUAAAUUCUUGUUGUAAAUGCAACCAACAGAGGAUUGAGCAUCA
B14: chr11:109522620:109522621:+_ENSMUSG00000020612_ENSMUST00000049527|mus_hu|FALSE|FALSE (ssRNA)
RNA: GGGAGUUCUACAGUCCGACGAUCAUCCCCUUCAUCACCUUGCUGAAUCACAGUCUCUCCUGCGAUAAAGGAGACCGAAAACAUGGCAUCAAAAAUAUCACUUCUCUCAUUAUCAUCAAGAUGUGAAAACAGCACAUUCUUUUCCAACAGAGGAUUGAGCAUCA
B15: chr9:110467127:110467128:+_ENSMUSG00000044791_ENSMUST00000153838|mus_mus|FALSE|FALSE (ssRNA)
RNA: GGGAGUUCUACAGUCCGACGAUCUUCUUUGCCAUAUCUUUGGAACUGGUAGUCAAAAGUUAAUUCUGAGCCUGAAGGAACUAGUUUGGUGGUAAAAAAUCCAACCCUCAGCUGUCCAUUCACAGUCCAUUUCUGGGUUUCACACAACAGAGGAUUGAGCAUCA
B16: chr1:39494564:39494565:+_ENSG00000168653_ENST00000372967|hu_hu|hu_hu_hu_mus_True|8_38 (ssRNA)
RNA: GGGAGUUCUACAGUCCGACGAUCAUGCAUUCGCCUCAUCGUUUUGUACCGAAGCAAGCACUCUUCGAAGUCAUCGAACUCUAUCUUGCACUCCUUUUCUGCCCGAGUCCCACCGAUCCCGUGUGCACAUUCUAUCCACUCUUUCAACAGAGGAUUGAGCAUCA
B17: chr9:50470998:50470999:-_ENSMUSG00000032064_ENSMUST00000117646|mus_mus|motif|central (ssRNA)
RNA: GGGAGUUCUACAGUCCGACGAUCUAGGCAGUUAAAACAGGUUAUUACAUUGAUCAUCGGAAACUUCUGGCAUAACAGUCGGUGAAAACAUUGUAAAACAGAAUACAUGGUAAGAAUCUCUGAAAGCAGUGGUCACAAACACCCCAACAGAGGAUUGAGCAUCA
B18: chr2:198351390:198351391:-_ENSG00000144381_ENST00000345042|hu_hu|hu_hu_hu_mus_False|48_108 (ssRNA)
RNA: GGGAGUUCUACAGUCCGACGAUCUCAUUCUCACUCUCCACAGAAAGGCUGCUUCUGAACUCUCAUGUGGUGACACAGCGCUACAGUCCUGAUUUUAACAGAACAGUAGAGAUGCCUCAGUGAUUUAAGUUGAAAGCAGGACACCAACAGAGGAUUGAGCAUCA
B19: 56517131_56518048_387_CDS_ENSMUSG00000022223_ENSMUST00000111325|mouse|control|control (ssRNA)
RNA: GGGAGUUCUACAGUCCGACGAUCUUCCCAUUUGGUUACCAGGUUGGAGAAAAAGUCAAAAUUCCCUCCUGGGCUGUCUUCAUCAUACUCCUUAGUCAGGCUUGGCUGGUAGUAAGCUACACCUGUGACUAGAAUCCAAGCCUGCAACAGAGGAUUGAGCAUCA
B20: 93596713_93600395_1924_CDS_ENSG00000107854_ENST00000371627|human|control|control (ssRNA)
RNA: GGGAGUUCUACAGUCCGACGAUCCCCAGCUGCAAAAUGAAGUGGUGUAGACUGACGCCCUUCAAUGUCUCUGCAGUUGACACUCUGAACAGUACACAGUUUUUUUACAGUUUCGACAUCUCCAGCCUUUGCAGCUUCCAGCAACAACAGAGGAUUGAGCAUCA
B21: 25284677_25285055_493_3pUTR_ENSMUSG00000054793_ENSMUST00000068023|mouse|control|control (ssRNA)
RNA: GGGAGUUCUACAGUCCGACGAUCAUACCAGCGCAGGACCGCUGCGGGGCGCGACCGCGGAACCAGGCAGCUGAGUUCCACCUCGCCGCCCUCCACUGCUUGCUCUCGGACCUCCACCACAGGAUUCUCCGGAGCCACUAAGACCAACAGAGGAUUGAGCAUCA
B22: chr1:172123744:172123745:-_ENSMUSG00000026667_ENSMUST00000150821|mus_mus|FALSE|FALSE (ssRNA)
RNA: GGGAGUUCUACAGUCCGACGAUCCAGCUCGCUGAAACACAGUGCUCACACUUUAUAGGGAGGUGGAAAUAAAGUCCUCUGCUAUUCAGCAAGAAAAUAGACAUCUGAAAGACUGAUAAUGAAAAAAGAACAUCUUGGUACUAACAACAGAGGAUUGAGCAUCA

Molecular target: T1, UNK ZnF1-3
Assay: nsRBNS (natural sequence RNA bind-n-seq); RBNS binding buffer (assumed for nsRBNS): 25 mM Tris pH 7.5, 150 mM KCl, 3 mM MgCl2, 0.01% Triton X-100, 500 ug/ml BSA, 20 U/ml SUPERase-In, 4 C; UNK is unkempt and MSI1 is Musashi-1; names of the RNAs are library labels; protein concentration not given here; high values mean tight binding

Row | Binder | binding signal [enrichment R]
1 | B1 | 2.22
2 | B2 | 0.84
3 | B3 | 0.878
4 | B4 | 1.2
5 | B5 | 1.28
6 | B6 | 0.569
7 | B7 | 0.739
8 | B8 | 0.92
9 | B9 | 2.2
10 | B10 | 2.04
11 | B11 | 0.54
12 | B12 | 0.83
13 | B13 | 0.946
14 | B14 | 0.666
15 | B15 | 0.918
16 | B16 | 0.607
17 | B17 | 1.3
18 | B18 | 1.05
19 | B19 | 0.754
20 | B20 | 0.635
21 | B21 | 1.14
22 | B22 | 1.5
